Our source for the viscosity values is the CheMixHub viscosity set.

± gives the uncertainty stated by the source. The source holds more than one record for some entries. The other results are left out here. The source may hold further records. Results that share an entry repeat one measurement in other runs, samples, wells, individuals or studies. A tag in brackets gives the origin of a value. Letters hold for one entry only. Marks such as (2×) give the number of equal values in this list.

Consider `COCCOCCOC`, for which the viscosity reads like this: (298.15 K, 101.33 kPa) 0.973 ± 0.013 mPa·s [study A] and 0.973 ± 0.013 mPa·s [study B] and 0.991 ± 0.025 mPa·s [study C] and 0.992 ± 0.025 mPa·s, 0.992 ± 0.013 mPa·s [study D] and 0.973 ± 0.012 mPa·s [study E] and 0.991 ± 0.013 mPa·s, 0.991 ± 0.007 mPa·s [study F] and 0.99 ± 0.012 mPa·s [study G]; (308.15 K, 101.33 kPa) 0.839 ± 0.012 mPa·s [study A] and 0.839 ± 0.012 mPa·s [study B] and 0.842 ± 0.021 mPa·s [study C] and 0.845 ± 0.022 mPa·s, 0.845 ± 0.011 mPa·s [study D] and 0.839 ± 0.011 mPa·s [study E] and 0.842 ± 0.011 mPa·s, 0.842 ± 0.006 mPa·s [study F] and 0.839 ± 0.011 mPa·s, 0.829 ± 0.011 mPa·s [study G]; (313.15 K, 101.33 kPa) 0.781 ± 0.011 mPa·s [study A] and 0.781 ± 0.011 mPa·s [study B] and 0.786 ± 0.02 mPa·s [study C] and 0.781 ± 0.01 mPa·s [study D] and 0.786 ± 0.006 mPa·s [study E].

For the compound `CO`, the viscosity runs as follows: (298.15 K, 101 kPa) 0.7 ± 0.03 mPa·s [study A] and 0.542 ± 0.005 mPa·s [study B] and 0.533 ± 0.006 mPa·s [study C] and 0.554 ± 0.0056 mPa·s [study D] and 0.5417 ± 0.005 mPa·s [study E] and 0.5418 ± 0.054 mPa·s [study F]; (303.15 K, 101 kPa) 0.533 ± 0.044 mPa·s [study A] and 0.521 ± 0.011 mPa·s [study B] and 0.66 ± 0.03 mPa·s [study C] and 0.47 ± 0.005 mPa·s [study D] and 0.545 ± 0.011 mPa·s [study E]; (308.15 K, 101 kPa) 0.411 ± 0.005 mPa·s, 0.4745 ± 0.0051 mPa·s, 0.464 ± 0.0046 mPa·s, 0.4717 ± 0.0045 mPa·s (2×), 0.495 ± 0.052 mPa·s, 0.47 ± 0.01 mPa·s, 0.477 ± 0.012 mPa·s, 0.4741 ± 0.048 mPa·s, 0.4833 ± 0.0044 mPa·s, 0.4774 ± 0.004 mPa·s, 0.491 ± 0.01 mPa·s, 0.61 ± 0.03 mPa·s [several studies]; (313.15 K, 101 kPa) 0.453 ± 0.01 mPa·s, 0.453 ± 0.013 mPa·s, 0.43 ± 0.01 mPa·s, 0.457 ± 0.004 mPa·s, 0.514 ± 0.044 mPa·s, 0.465 ± 0.01 mPa·s, 0.443 ± 0.089 mPa·s, 0.455 ± 0.007 mPa·s, 0.442 ± 0.044 mPa·s, 0.57 ± 0.02 mPa·s, 0.4539 ± 0.012 mPa·s [several studies].

As for `CCCO`, the viscosity by setting is: (293.15 K, 101 kPa) 2.147 ± 0.013 mPa·s [study A] and 2.18 ± 0.07 mPa·s [study B] and 2.102 ± 0.039 mPa·s [study C] and 2.152 ± 0.013 mPa·s [study D]; (303.15 K, 101.33 kPa) 1.818 ± 0.018 mPa·s [study A] and 1.546 ± 0.037 mPa·s [study B] and 1.784 ± 0.011 mPa·s [study C] and 1.784 ± 0.014 mPa·s [study D] and 1.784 ± 0.021 mPa·s [study E]; (313.15 K, 101 kPa) 1.416 ± 0.03 mPa·s [study A] and 1.32 ± 0.062 mPa·s [study B] and 1.418 ± 0.014 mPa·s [study C] and 1.313 ± 0.0085 mPa·s [study D]; (318.15 K, 101 kPa) 1.273 ± 0.027 mPa·s [study A] and 1.273 ± 0.013 mPa·s [study B] and 1.174 ± 0.015 mPa·s [study C] and 1.185 ± 0.0078 mPa·s [study D].

As for `COC(=O)OC`, the viscosity (298.15 K, 101.3 kPa) is 0.588 ± 0.013 mPa·s [study A] and 0.629 ± 0.006 mPa·s [study B] and 0.589 ± 0.008 mPa·s [study C] and 0.56 ± 0.12 mPa·s [study D]; the viscosity (298.15 K, 101.33 kPa) is 0.534 ± 0.016 mPa·s [study A] and 0.589 ± 0.006 mPa·s [study B] and 0.589 ± 0.008 mPa·s [study C] and 0.589 ± 0.01 mPa·s [study D] and 0.589 ± 0.008 mPa·s [study E].

As usually defined, the viscosity is the resistance of a fluid to flow. Read a low viscosity as easy flow.
